Measured values from the supplement of paper PMC11417369.
± gives the standard deviation of the averaged measurements. The list shows a part of the results.

Test system: PfAP2-LT AP2 domain (GST-tagged)
Test: gcPBM binding intensity (ln(normalized median fluorescence intensity)); higher = stronger DNA binding
In short: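 Plasmodium falciparum DNA-binding domains carrying a GST tag were expressed in E. coli and applied for 1 h, at about 25 μg on average, to an Agilent 4 × 180k array. The array held primer-extended double-stranded 36-bp intergenic genomic probes together with negative controls, and binding took place in 1× PBS with 1% milk, 0.2 mg/ml BSA, 0.5% salmon testes DNA and 0.03% Triton X-100. An Alexa488 anti-GST antibody detected bound protein, and the array was scanned at 488 nm. Binding intensity is taken as the highest Masliner-normalised natural-log median intensity across replicate spots of either probe orientation.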

“TTTTTTTTTTGATGTTGTACTTATATACTATATAAT [XGTACX_site2778]” and “CATTTTTAAAAAAATTGTACAAAACATATATGTGTA [XGTACX_site3396]” are within error of each other in “gcPBM binding intensity (ln)” value: 8.7 ± 0.51 for the first, 8.57 ± 0.44 for the second.

“TTCCTTTTGAACTCTCGTACGCGTAGGTGTTATTAT [XGTACX_site6264]” and “TATTAAAAGTAAAAAACACACATGGATATATACATA [CACACA_site3959]” are within error of each other in “gcPBM binding intensity (ln)” value: 9.06 ± 0.55 for the first, 8.89 ± 0.4 for the second.

“TATGTGTGACAAAATTGTACGGTCTCTTTATTTTGT [XGTACX_site2679]” and “TATACGGACTCTAAGTGTACTTAAAATAATTCAAAC [XGTACX_site3606]” are within error of each other in “gcPBM binding intensity (ln)” value: 8.96 ± 0.38 for the first, 8.63 ± 0.43 for the second.

First: TAAAAATGTTGACACACACACATAAATATATTTTAT [CACACA_site7227]
Second: TATATTGCCCTTCACACACACACATATATATATATA [CACACA_site2492]
The “gcPBM binding intensity (ln)” value of the first is lower: 9.22 ± 0.36 for the first, 10 ± 0.13 for the second.

Going from “ATTTTTATACCTAAGTGTACATGATGTTTTCTTTTT [XGTACX_site973]” to “TATTATATAATAAAAATTATTATTATTTGTATAAAT [CACACA_negctrl_site195]”, the “gcPBM binding intensity (ln)” value falls from 9.01 ± 0.47 to 8.13 ± 0.38.

“TAAATAAATAAAAAAACACACATATAAATATAAATA [CACACA_site7815]” and “TGTTTCCTATTTTGTATGCACTTTTTGTCATAATTA [GTGCAC_site9921]” are within error of each other in “gcPBM binding intensity (ln)” value: 8.9 ± 0.52 for the first, 8.98 ± 0.49 for the second.

First: TAAACAGACATACATACACACATACATACAGACATA [CACACA_site6997]
Second: AAAAAAAAAGTATATATATATTTAAGGAATTCTCTC [GTGCAC_negctrl_site454]
The “gcPBM binding intensity (ln)” value of the first is higher: 9.61 ± 0.37 for the first, 8.46 ± 0.47 for the second.

Compared with “CATATACTCGGACACACACACACACCGACAAAAAAA [CACACA_site4433]”, “TTTTGTGGAGGATGGTGTACGGTATTGTATTATTAC [XGTACX_site1942]” is lower in “gcPBM binding intensity (ln)” value: 10.1 ± 0.41 for the first, 9.16 ± 0.44 for the second.

“TTTATAGTTTTTAATAGTACACATATTTTTAAGTAT [XGTACX_site5498]” and “TATCATAAAATATGTAGTACGTATATATATAAAAAT [XGTACX_site5455]” are within error of each other in “gcPBM binding intensity (ln)” value: 8.53 ± 0.46 for the first, 8.97 ± 0.41 for the second.

“AATATATAGCTAAAAACACACAAATATATACTCATA [CACACA_site5904]” and “CTCACGTAGCTTGATGCATGCAAACTTGAGTAAAAG [TGCATGCA_site409]” are within error of each other in “gcPBM binding intensity (ln)” value: 8.98 ± 0.46 for the first, 8.83 ± 0.4 for the second.

“ATACATTTTTTTTTCACACATATATATATATTTAAT [CACACA_site5995]” and “TTTATAAAATTTATTGCACACAATTATTTTATAATT [CACACA_site2489]” are within error of each other in “gcPBM binding intensity (ln)” value: 8.91 ± 0.43 for the first, 8.93 ± 0.53 for the second.

CAACCTTTTTTGTTGGTGCATAATTTTTTTTTCTTT and “ATATATATATATTGCACACATATAAATATATATATT [CACACA_site807]” are within error of each other in “gcPBM binding intensity (ln)” value: 8.56 ± 0.42 for the first, 9.04 ± 0.29 for the second.

First: CTTAAATTTTTAAATACACACATACACCCATACACA [CACACA_site4461]
Second: AAACCCTATTCAATGCAATAATTTTATAATTTTTTT [TGCATGCA_negctrl_site434]
The “gcPBM binding intensity (ln)” value of the first is higher: 9.315 ± 0.064 for the first, 8.44 ± 0.44 for the second.

“TTTTTTTTAAATATCACACACATATAATATATTCTA [CACACA_site3668]” and “TTTATTATAATATGTTGTACAAGACGTTTCAGTATA [XGTACX_site4486]” are within error of each other in “gcPBM binding intensity (ln)” value: 8.81 ± 0.43 for the first, 8.57 ± 0.38 for the second.

“AAATTATCTTAATAGGATGTTCAAGGAGAAAGATGA [CACACA_negctrl_site1032]” and “TAAATTAATACCTATGCACACATTTTTTTTTTTAAA [CACACA_site1238]” are within error of each other in “gcPBM binding intensity (ln)” value: 8.65 ± 0.44 for the first, 8.69 ± 0.41 for the second.

“TTACCTTTTTCTAATGGTACACATAAAATATCATTT [XGTACX_site6825]” and “TTTTCTTACACGAATTTTAAATTCAATATTAAACAT [CACACA_negctrl_site286]” are within error of each other in “gcPBM binding intensity (ln)” value: 8.6 ± 0.36 for the first, 8.41 ± 0.44 for the second.

“GAGTTAATTTTTTCGTGTACTTGAAAATATTTTTTT [XGTACX_site6392]” and “TTAGCAACTATTACTACACACATTTGTATATAACTT [CACACA_site6850]” are within error of each other in “gcPBM binding intensity (ln)” value: 8.72 ± 0.51 for the first, 9.13 ± 0.45 for the second.

“GTGGAAATATAACACATTTTTTTTAATAATTATATT [TGCATGCA_negctrl_site522]” and “TAGCGGCGGTATCATGCACACGTATATATTGTAACA [CACACA_site8453]” are within error of each other in “gcPBM binding intensity (ln)” value: 8.48 ± 0.56 for the first, 9.13 ± 0.37 for the second.

“AACATGTATATATTATGTACATATGTTAAAATGATA [XGTACX_site6217]” and “ATAGTTTTATATAAATGTACAAATGATTTCAAATAG [XGTACX_site8236]” are within error of each other in “gcPBM binding intensity (ln)” value: 8.96 ± 0.36 for the first, 8.62 ± 0.49 for the second.

“TAAAAGTAAAGACATGCATGCATTGGTATCTTTTAC [TGCATGCA_site665]” and “GACCCACTTTTCTGCACACATAAAAAATATATAAAT [CACACA_site4483]” are within error of each other in “gcPBM binding intensity (ln)” value: 8.95 ± 0.35 for the first, 9.06 ± 0.35 for the second.

“TATAATAAAACTTTTACACACTTTAAAAAAAAAAAA [CACACA_site6392]” and “TTTATATTTAAATATATATGAGAAAACACAAAATAT [TGCATGCA_negctrl_site211]” are within error of each other in “gcPBM binding intensity (ln)” value: 8.46 ± 0.49 for the first, 8.62 ± 0.3 for the second.

Going from “ATATCTTTGCAAAGATGTACTTGTAAAAATATATGA [XGTACX_site768]” to “TATATATATATATATATACACACGTATATATATACA [CACACA_site4155]”, the “gcPBM binding intensity (ln)” value rises from 8.59 ± 0.39 to 9.97 ± 0.4.
